Source: patent publication US20020002171A1, “Materials and methods for killing nematodes and nematode eggs” (priority 2000, published 2002)
For at least one compound, name, drawing or mass did not settle the structure.

Columns and labels:
[1] = tested on: C. elegans; assay: C. elegans nematode activity assay, 2-fold dilutions from 140 μM, visual evaluation at Day 4 (Example 3); format: in vivo, Caenorhabditis elegans
Method: (§1) The eggs were allowed to hatch, and the L1 larvae collected. See The Nematode Caenorhabditis elegans (1988) Cold Spring Harbor Laboratory Press. Using a Matrix Programmable Pipette, the L1s were distributed into 96-well tissue culture plates, 20 L1 in 50 μl NGM per well. Antibiotic/Antimyoticwas added to each well, and 1% by weight E. coli strain HB101. The subject anthelmintic compounds were stored at 5 mM in 100% DMSO. 0.7 μl of compounds 1-31 were added to the left-most column of wells to yield a final concentration of 70 μM in 1.4% DMSO, with 1.4% DMSO only as the control. The compounds were then subjected to 5 more 3-fold dilutions from left to right to yield 6 column concentrations of 70 μM, 23.3 μM, 7.8 μM, 2.6 μM, 0.9 μM, and 0.3 μM. Plates were stored in air-tight Rubbermaid plastic boxes at 20° C. The nematodes had cleared all control wells by day 4, and nematode viability was scored by visual examination under a 100× dissecting microsope on day 5. A visual viability scoring system was used as follows:
The C. elegans nematode activity assay for anthelmintic compounds 32-46 was similar to that described in Example 2 above, except for the following noted differences. The compound concentrations were adjusted to 140 μM and subjected to 2-fold dilutions to yield 140 μM, 70 μM, 35 μM, 17.5 μM, 8.8 μM, 4.4 μM, 2.2 μM, and 1.09 μM.

[2] = tested on: Caenorhabditis elegans; assay: C. elegans L1 nematicidal dose response in 96-well plates, 5 day visual score (Example 2; same procedure for Example 7, Table 3); format: in vivo
Method: Caenorhabditis elegans adults were grown on Nematode Growth Medium (NGM) until they produced eggs, then the adults were removed.
as §1
Column V1 has a compound concentration of 70 μM with sequential 3-fold dilutions reported in columns V2, V3, V4, V5, and V6, respectively, such that the V6 concentration was 0.3 μM.
The nematicidal activity of anthelmintic Compositions 48-168 were determined in accordance with the procedure outlined in Example 2.

CCCCCCCCOc1ccc2nc(CCSC)[nH]c2c1 [AKC-144]
visual evaluation of viability [1]: L3/L4

C=CCN(CC=C)c1nc(NCc2ccc(C(F)(F)F)cc2)ns1 [compound 312]
Follow-up HTS Run Visual Score [2]: L2/L3
Initial HTS Run Visual Score [2]: L2/L3

CCOC(=O)CCN(Cc1ccccc1)c1nc(NCc2ccc(C(F)(F)F)cc2)ns1 [compound 313]
Follow-up HTS Run Visual Score [2]: L2/L3

CN(CCc1ccccc1)c1nc(NCc2ccc(C(F)(F)F)cc2)ns1 [compound 314]
Follow-up HTS Run Visual Score [2]: L2/L3
Initial HTS Run Visual Score [2]: L2/L3

CN(Cc1ccccc1)c1nc(NCc2ccc(C(F)(F)F)cc2)ns1 [compound 315]
Follow-up HTS Run Visual Score [2]: L2/L3
Initial HTS Run Visual Score [2]: L2/L3

COc1ccc(CCN(C)c2nc(NCc3ccc(C(F)(F)F)cc3)ns2)cc1OC [compound 317]
Initial HTS Run Visual Score [2]: L2/L3

CCCCN(CC)c1nc(NCc2ccc(C(F)(F)F)cc2)ns1 [compound 319]
5 Day Visual Score V1 ([2]; dose response, dilution V1, 5 day): L3/L4

CCN(Cc1ccccc1)c1nc(NCc2ccccc2C(F)(F)F)ns1 [compound 320]
Follow-up HTS Run Visual Score [2]: L2/L3
Initial HTS Run Visual Score [2]: L2/L3

C=CCN(CC=C)c1nc(NCc2ccccc2C(F)(F)F)ns1 [compound 321]
Follow-up HTS Run Visual Score [2]: L2/L3

Fc1ccc(N2CCN(c3nc(NCc4ccccc4)ns3)CC2)cc1 [compound 324]
Follow-up HTS Run Visual Score [2]: L2/L3
Initial HTS Run Visual Score [2]: L2/L3

CCN(Cc1ccccc1)c1nc(NCc2ccccc2)ns1 [compound 326]
Follow-up HTS Run Visual Score [2]: L3/L4
Initial HTS Run Visual Score [2]: L2/L3

C=CCN(CC=C)c1nc(NCc2ccccc2)ns1 [compound 327]
Follow-up HTS Run Visual Score [2]: L3/L4

CN(Cc1ccccc1)c1nc(NCc2ccccc2)ns1 [compound 328]
Follow-up HTS Run Visual Score [2]: L3/L4
Initial HTS Run Visual Score [2]: L2/L3/L4

C=CCN(CC=C)c1nc(NC2CCCCCCCCCCC2)ns1 [compound 334]
Follow-up HTS Run Visual Score [2]: L1/L2

CN(Cc1ccccc1)c1nc(NC2CCCCCCCCCCC2)ns1 [compound 336]
Follow-up HTS Run Visual Score [2]: L1/L2
5 Day Visual Score V3 ([2]; dose response, dilution V3, 5 day): L1/L2
